Data published in PubChem BioAssay AID493208 (National Center for Advancing Translational Sciences (NCATS), 2011).
Screen size: about 44,000 compounds; about 340 (0.77%) were called active. Roughly 5% stayed inconclusive and do not appear here. Calls come from the whole dose curve; as a rule, active = well fitted inhibition curve with a large enough effect; inconclusive = small, poorly fitted or top-dose-only effect; inactive = flat fitted curve, though single readings scatter. This is one part of the list.

Experiment: Acumen qHTS Assay for Inhibitors of the mTORC1 Signaling Pathway in MEF (Tsc2-/-, p53-/-) Cells: Sytravon;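 note: plate controls were DMSO for no effect and rapamycin for full effect; nearly all actives have a fitted effect of over 50% in size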
Details: phospho-rpS6 immunofluorescence/PI, 24 h; series mostly up to 38.3 µM; activity change, negative = inhibition: at the top concentration
Summary of the method: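 Readout is phospho-S6 Alexa 488 signal normalized to PI per well, reported as % active cells with thresholds set from rapamycin (7.5 nM) and DMSO controls. Cells: Tsc2-/-, p53-/- MEFs, 24 hrs compound at 37 C; PI cell number serves as viability.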

| Structure (SMILES) | activity change, negative = inhibition |
| --- | --- |
| COc1ccc(N2CC(NC(=O)c3ccco3)CC2=O)cc1 (configuration not stated) | inactive: -5.32% |
| Nc1cc(=O)nc(SCC(=O)Nc2ccc(F)cc2)n1CCc1ccccc1 | inactive: -14.3% |
| COc1ccccc1NC(=O)C1CCN(C(=O)c2sc3nc[nH]c(=O)c3c2C)CC1 | inactive: -9.86% |
| CC(=O)c1ccc(NC(=O)c2ccc(-c3ccc(Cl)cc3)o2)cc1 | inactive: -4.14% |
| Cc1cccc(CCNC(=O)CCc2c(C)nc3c4c(C)cc(C)nc4nn3c2C)c1 | inactive: -11.9% |
| COc1ccc(CNC(=O)Cn2ncc3c([nH]c4ccccc43)c2=O)cc1 | inactive: -12.6% |
| Cc1nn(-c2ccc(N3CCCC3)nn2)c(C)c1CCC(=O)Nc1ccc(F)cc1F | inactive: 0.936% |
| CCc1cccc(C)c1NC(=O)Cn1c(=O)cc(C)c2c(C)nn(-c3cccc(F)c3)c21 | inactive: -5.13% |
| COc1ccccc1N1CCN(c2cc(C)nc3nc(-c4ccc(C)cc4)nn23)CC1 | inactive: 3.71% |
| O=C(NCc1ccc(F)cc1)c1ccc(Nc2nc3ccccc3n3nnnc23)cc1 | inactive: -6.67% |
| Cc1c(C(=O)Nc2ccccc2F)sc2ncnc(N(C)C3CCCCC3)c12 | inactive: 0.517% |
| COc1ccc(C)cc1NC(=O)c1ccc2c(SCC(=O)O)c3c(nc2c1)CCCC3 | inactive: 1.39% |
| CCOc1ccc(NC(=O)C2CC(=O)N(c3ccc(C(C)C)cc3)C2)cc1 (configuration not stated) | inactive: -17.5% |
| COc1ccc(NC(=O)c2sc3nc[nH]c(=O)c3c2C)cc1Cl | inactive: -2.8% |
| Cn1c(=O)n(-c2ccc3c(c2)OCO3)c2nc(-c3ccccc3)nc(C(N)=O)c21 | inactive: 0.57% |
| CCOC(=O)CC(NC(=O)Cn1nnc(-c2ccc(C(F)(F)F)cc2)n1)c1ccc(OC)cc1 (configuration not stated) | inactive: 1.08% |
| Cc1cc(C)cc(NC(=O)CSc2cc(C)[nH]c(=O)n2)c1 | inactive: -2.93% |
| COc1cccc2c1cc1c(=O)n(CC(=O)N3CCN(c4cccc(C)c4)C(C)C3)nc(C)n12 (configuration not stated) | inactive: -10.1% |
| CCCC1=Nc2cc(C(=O)NC3CCCC3)ccc2Sc2ccc(C)cc21 | inactive: -9.92% |
| COc1cc(CN(C(=O)COc2ccc(C)cc2)c2ccccn2)cc(OC)c1OC | inactive: -15.8% |
| COc1ccc(C(=O)N2CCN(Cc3cc(=O)n4nc(-c5ccccc5C)sc4n3)CC2)cc1OC | inactive: 3.01% |
| Cc1cccc(NC(=O)C2CCN(S(=O)(=O)c3ccc(F)cc3)CC2)c1C | inactive: 1.99% |
| CCCCNC(=O)c1nn(-c2ccc(CC)cc2)nc1CO | inactive: 2.45% |
| CCCn1c(=O)sc2cc(NC(=O)COc3ccc(Cl)cc3)ccc21 | inactive: -6.47% |
| CC1CCC(NC(=O)c2ccc3c(c2)N(Cc2cccc(Cl)c2)C(=O)c2ccccc2S3(=O)=O)CC1 (configuration not stated) | inactive: 0.208% |

| Structure (SMILES) | activity change, negative = inhibition |
| --- | --- |
| CCc1ccccc1NC(=O)Cn1nnc(C(=O)NCc2ccccc2Cl)c1N | inactive: -5.32% |
| COc1cccc(CN(C(=O)c2oc3cc(C)ccc3c2C)C2CCS(=O)(=O)C2)c1 (configuration not stated) | inactive: -2.71% |
| CCOC(=O)c1ccc(NS(=O)(=O)c2ccc3c(c2)n(C)c(=O)n3C)cc1 | inactive: -2.55% |
| COc1ccc(-c2nc3c4ccccc4n(CC(=O)N4CCN(c5ccccc5OC)CC4)c(=O)n3n2)cc1 | inactive: 4.62% |
| CCN(CC)CCCNC(=O)CN1C(=O)CCn2nc(-c3cn(C)c4ccccc34)cc21 | inactive: 2.78% |
| COc1ccc(CCNC(=O)c2ccc3c(c2)c(C)c(C)n3Cc2ccc(F)cc2)c(OC)c1OC | inactive: 0.843% |
| COc1ccc(-c2nc(CSCC(=O)N3CCN(c4cccc(C)c4C)CC3)c(C)o2)cc1OC | inactive: -10.6% |
| COc1cccc(-n2c(=O)c3c4c(sc3n(Cc3ccc(C)cc3)c2=O)CCCC4)c1 | inactive: -8.09% |
| Cc1ccc2nc(-c3ccccc3F)c(Nc3ccc(Cl)cc3)n2c1 | inactive: -5.01% |
| Cc1nnc(NC(=O)CSCc2cc(=O)c3cc(Cl)ccc3[nH]2)s1 | inactive: 9.48% |
| O=S(=O)(NCc1ccc(F)cc1)c1ccc(-c2cnc(C3CC3)o2)cc1 | inactive: 2.64% |
| Cc1ccc(C(=O)c2cn(CC(=O)NC3CCCCC3)c3nc(C)ccc3c2=O)cc1 | inactive: -5.23% |
| Cc1c(C(=O)N2CCCC2)oc2c1-c1nn(CC(=O)NCCCOC(C)C)cc1CC2 | inactive: 0.556% |
| COc1cccc(C(=O)Nc2ccccc2C(=O)OCc2cc(=O)n3nc(C4CC4)sc3n2)c1 | inactive: 4.92% |
| O=C(NC1CC(=O)N(c2cccc(F)c2)C1)C1CCCC1 (configuration not stated) | inactive: -0.258% |
| Cc1c(C)c2c(cc(C)c3c(-c4ccccc4)coc32)oc1=O | inactive: -2.61% |
| COc1ccccc1-n1ncc2c(=O)[nH]c(SCC(=O)Nc3ccc(Cl)cc3)nc21 | inactive: -6.98% |
| Cc1ccc(CNC(=O)c2cccn2-c2nnc(N3CCCCC3)s2)cc1 | inactive: 0% |
| COc1cc(-c2nc(Cn3nnc(C(=O)Nc4ccccc4)c3C)c(C)o2)cc(OC)c1OC | inactive: -26.4% |
| O=C(Nc1cc2c(cc1C(=O)c1ccccc1)OCCO2)c1ccc(Br)cc1 | inactive: -20.2% |
| O=C(c1cccn1-c1nnc(N2CCCC2)s1)N1CCN(c2ccccc2)CC1 | inactive: 2.81% |
| CN(C)CCN(Cc1ccccc1)S(=O)(=O)c1ccc2[nH]c(=O)ccc2c1 | inactive: -1.51% |
| Cc1ccccc1-c1nc(SCC(=O)NCc2ccco2)c2c(=O)n(C)c(=O)n(C)c2n1 | inactive: 0.932% |
| COc1ccc2oc(=O)c(-c3csc(-c4ccc(Br)cc4)n3)cc2c1 | inactive: 1.12% |
| COc1cccc(-n2cc(C(=O)NCCc3ccc(C)cc3)c3ccccc3c2=O)c1 | inactive: 10.2% |

| Structure (SMILES) | activity change, negative = inhibition |
| --- | --- |
| O=C(/C=C\c1ccc2c(c1)OCO2)NC1CC(=O)N(c2ccc(Cl)cc2)C1 (configuration not stated) | inactive: 3.12% |
| Cc1ccc(NC(=O)C2CCN(S(=O)(=O)c3c(C)noc3C)CC2)c(C)c1 | inactive: -8.84% |
| COc1ccc(-c2csc3nc(-c4ccccc4C)oc(=O)c23)cc1OC | inactive: -1.32% |
| CC(=O)N1CCOc2cc(S(=O)(=O)NCc3ccc(C)cc3)c(Cl)cc21 | inactive: -0.133% |
| CCOc1ccccc1NC(=O)c1cc(=O)c2ccc(C)cc2o1 | inactive: -1.78% |
| COc1ccc(NC(=O)CSc2oc(-c3cccs3)nc2S(=O)(=O)c2ccc(C)cc2)c(OC)c1 | inactive: 3.11% |
| CCSc1nc(-c2ccccc2OC)nc2c1Cc1c(CO)cnc(C)c1O2 | inactive: -0.283% |
| CCOC(=O)c1c(C)oc2ncnc(N3CCN(c4ccccc4F)CC3)c12 | inactive: -3.93% |
| O=C(Cc1cccs1)NC1CC(=O)N(c2cccc(F)c2)C1 (configuration not stated) | inactive: 3.73% |
| Cn1c(=O)n(C)c2cc(NS(=O)(=O)c3ccc(F)cc3)ccc21 | inactive: -0.709% |
| COc1cccc(C(=O)Nc2ccc3nc(SCC(=O)N4CCOCC4)sc3c2)c1 | inactive: 0% |
| Cc1cc(C)n2c(Nc3ccc(Cl)cc3)c(-c3ccsc3)nc2n1 | inactive: -8.21% |
| COc1cc2nc(NCCC(C)C)n3nc(-c4ccccc4)nc3c2cc1OC | inactive: -8.08% |
| Cc1ccc2c(CN3CCN(C(=O)c4ccc(F)cc4)CC3)cc(=O)oc2c1 | inactive: 1.7% |
| Cc1ccc(OCC(=O)N(c2ccc(C)cc2)S(=O)(=O)c2ccc(Cl)cc2)cc1 | inactive: -2.85% |
| CCOc1ccccc1NC(=O)CSc1nc(=O)[nH]c2c1CCCC2 | inactive: -3.78% |
| O=C(CS(=O)(=O)c1cccc2nsnc12)Nc1ccccc1 | inactive: -1.2% |
| COc1ccccc1CNC(=O)CN1C(=O)COc2ccc(S(=O)(=O)Nc3ccccc3)cc21 | inactive: -11.6% |
| CSCCC(NS(=O)(=O)c1ccc2c(c1)oc(=O)n2C)C(=O)N1CCN(c2cc(C)ccc2C)CC1 (configuration not stated) | inactive: -6.42% |
| COc1ccc(C2CC(=O)NC(NC(=O)c3ccc(Br)cc3)=N2)c(OC)c1OC (configuration not stated) | inactive: -8.06% |
| CC(C)(C)c1ccc(C(=O)NCCc2csc3nc(-c4ccccc4F)nn23)cc1 | inactive: -2.7% |
| O=C(Nc1cc(-c2nc3ccccc3s2)ccc1Cl)c1cc2ccccc2o1 | inactive: 1.89% |
| CN(Cc1ccccc1)C(=O)c1ccc2c(c1)N(Cc1ccccc1F)C(=O)c1ccccc1S2(=O)=O | inactive: 5.71% |
| O=S(=O)(Nc1ccccc1C(F)(F)F)c1ccc(N2CCCCS2(=O)=O)cc1 | inactive: 15.7% |
| CCCOc1cccc(NC(=O)c2c(-c3ccccc3Cl)noc2C)c1 | inactive: 5.3% |

| Structure (SMILES) | activity change, negative = inhibition |
| --- | --- |
| CN(C(=O)CSc1nc2ccc(NC(=O)COc3ccc(Cl)cc3)cc2s1)c1ccccc1 | inactive: -27.2% |
| Cc1cccc(C)c1NC(=O)Cn1c(=O)n(Cc2ccccc2)c(=O)c2c(C)c(C(=O)N(C)C)sc21 | inactive: 0.177% |
| COc1ccc(Cl)cc1NS(=O)(=O)c1ccc2[nH]c3c(c2c1)CCCC3 | inactive: -18.3% |
| Cc1ccc(-c2nc3sc(CCNS(=O)(=O)c4cc(F)ccc4F)c(C)n3n2)cc1 | inactive: -3.87% |
| Cc1ccc(Cl)cc1-n1c(=O)cc(N2CCN(c3ccc(F)cc3)CC2)[nH]c1=O | inactive: -2.17% |
| Cc1cc(C)c2oc(C(=O)Nc3ccc(S(=O)(=O)N4CCCCC4)cc3)cc(=O)c2c1 | inactive: 0.0842% |
| CC(=O)N(Cc1cccnc1)c1nc2c(F)cc(F)cc2s1 | inactive: 1.07% |
| Cn1c(=O)c2c(-c3ccc(Cl)cc3)n(Cc3ccccc3)cc2n(C)c1=O | inactive: -2.89% |
| O=C(O)Cn1nnc(-c2ccc(OCc3cccc(C(F)(F)F)c3)cc2)n1 | inactive: -3.8% |
| CCOC(=O)c1cc(S(=O)(=O)Nc2ccc(C)cc2Cl)[nH]n1 | inactive: -20.9% |
| COc1cccc(NC(=O)C2CCC(CNS(=O)(=O)c3ccc4c(c3)CC(C)N4C(C)=O)CC2)c1 (configuration not stated) | inactive: -10.3% |
| COc1ccc(CNC(=O)CSc2nc3ccccc3nc2Cc2ccccc2)cc1 | inactive: -0.0409% |
| CCOC(=O)c1[nH]c(C)c(CCC(=O)NCc2ccc(N(C)C)cc2)c1C | inactive: 0% |
| COc1ccc(Cn2c(CCC(=O)NCc3cccc(Cl)c3)nc3cccnc32)cc1 | inactive: -6.71% |
| COc1ccc(S(=O)(=O)NCCc2cc3ccc(C)c(C)c3[nH]c2=O)cc1 | inactive: -2.5% |
| COc1cccc(/C=C/c2nc(C#N)c(NCCN(C)C)o2)c1 | inactive: -4.28% |
| COC(=O)c1ccc(NC(=O)CCc2c(C)nn(-c3ccc(N4CCCC4)nn3)c2C)cc1 | inactive: 0.0639% |
| CCOC(=O)c1cnn(-c2ccc(OC)cc2)c1C1CCN(C(=O)OC(C)(C)C)CC1 | inactive: -4.7% |
| Cc1cccc(-c2nc(SCc3ccc(Br)cc3)n3[nH]c(=O)cc3n2)c1 | inactive: -9.14% |
| COc1ccccc1N1CCN(C(=O)CCc2c(C)nn(-c3ccc(N4CCCC4)nn3)c2C)CC1 | inactive: 0% |
| Cn1nc(C(=O)Nc2cc(F)ccc2F)c2c1-c1ccccc1SC2 | inactive: 1.73% |
| CC1CCCCN1c1csc2ccc(F)cc2c1=O (configuration not stated) | inactive: -4.38% |
